Measured values taken from PubChem BioAssay AID1745853 (National Center for Advancing Translational Sciences (NCATS), 2022).
The list shows a part of the results. The main result of the screen is listed elsewhere. These columns were measured beside it and carry no call.

Experiments:
Experiment in all cases: Primary Screen for Target Class Profiling of Small Molecule Inhibitors of Methyltransferases
[1] = molecular target: Glycine N-methyltransferase (Homo sapiens) (UniProt Q14749); conditions: purified enzyme, MTase-Glo SAH luminescence; measured here: GNMT inhibition; at 40 µM; stronger effect = lower value
Procedure, shortened: (§1)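 Each enzyme was assayed with SAM and its substrate. SAH formation detected by MTase-Glo luminescence; single-point 40 uM screen[…].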

[2] = molecular target: Guanidinoacetate N-methyltransferase (Homo sapiens) (UniProt Q14353); conditions: purified enzyme, MTase-Glo SAH luminescence; measured here: GAMT inhibition; at 40 µM; stronger effect = lower value
Procedure, shortened: as §1

[3] = molecular target: Histamine N-methyltransferase (Homo sapiens) (UniProt P50135); conditions: purified enzyme, MTase-Glo SAH luminescence; measured here: HNMT inhibition; at 40 µM; stronger effect = lower value
Procedure, shortened: as §1

[4] = molecular target: Nicotinamide N-methyltransferase (Homo sapiens) (UniProt P40261); conditions: purified enzyme, MTase-Glo SAH luminescence; measured here: NNMT inhibition; at 40 µM; stronger effect = lower value
Procedure, shortened: as §1

[5] = molecular target: Phenylethanolamine N-methyltransferase (Homo sapiens) (UniProt P11086); conditions: purified enzyme, MTase-Glo SAH luminescence; measured here: PNMT inhibition; at 40 µM; stronger effect = lower value
Procedure, shortened: as §1
% is set by controls: 0 for no effect and ±100 for the full control effect.

| Structure (SMILES) | activity change, negative = inhibition [1] [%] | activity change, negative = inhibition [2] [%] | activity change, negative = inhibition [3] [%] | activity change, negative = inhibition [4] [%] | activity change, negative = inhibition [5] [%] |
| --- | --- | --- | --- | --- | --- |
| Cc1ccc(Cn2c(=O)c3ccc(C(=O)NCC(C)C)cc3n3c(=O)n(CC(=O)NC(C)C)nc23)cc1 | -0.353 | 1.03 | 0.121 | -4.12 | 2.98 |
| NC1=NC2(c3cc(NC(=O)c4ccc(F)cn4)ccc3F)COCC2CS1 (configuration not stated) | 1.29 |  | -6.13 |  |  |
| CCN1C(=O)c2cc(C(=O)NCCCN3CCCCC3)nn2CC1(C)C(=O)NC1CCCC1 (configuration not stated) | 9.08 | 4.07 | -4.94 | 10.8 | 7.96 |
| C=CCOc1c(OC)ccc2c1CN(Cc1ccccc1)C(=O)CCN2CC(O)COc1ccc(OC)cc1 (configuration not stated) | -8.93 | 0.044 | -1.97 | -32.1 | -1.36 |
| COCCCNC(=O)CCc1nnc2n(Cc3ccc(Cl)cc3)c(=O)c3ccccc3n12 | -10.9 | 0.153 | -7.57 | -1.73 | -7.55 |
| CCc1cccc(N2C(=O)c3cc(C(=O)OC)nn3CC2(C)C(=O)NC2CCCCC2)c1 (configuration not stated) | 7.69 | 0 | 5.65 | 9.48 | 9.35 |
| COC(=O)/C=C/c1ccc(O[C@@H]2O[C@H](CO)[C@@H](O)[C@H](O)[C@H]2O)cc1 | 3.46 | -0.08 | 10.8 | -14.8 | 6.21 |
| CCc1ccc(S(=O)(=O)c2nnn3c2nc(NCCNC(C)=O)c2ccccc23)cc1 | -15.3 | 3.41 | 1.01 | -14.5 | -2.93 |
| COc1ccc(S(=O)(=O)c2nnn3c2nc(Nc2ccccc2C)c2ccccc23)cc1 | -3.4 | 0 | 0.254 | -2.19 | -2.35 |
| O=C(C1CCCN1[S+](=O)([O-])c1cccc(C(F)(F)F)c1)N1CCC(N2Cc3cccn3C2=O)CC1 (configuration not stated) | -1.65 | -0.669 | 0.35 | -2.9 | 4.7 |
| COc1ccc(Cl)cc1NC(=O)N1CCn2c(C)ccc2C1C(C)C (configuration not stated) | 10.8 | 0 | 6.08 | -3.02 | 4.92 |
| O=C(NCc1ccccc1)c1ccc2c(=O)nc3c(-c4ccccc4F)n[nH]n3c2c1 | -31.1 | 3.19 | -2.32 | 1.09 | -2.49 |
| COC(=O)c1cc2n(n1)CC(C)(C(=O)NC1CCC(C)CC1)N(c1cccc(C)c1C)C2=O (configuration not stated) | 5.3 | 1.46 | 2.65 | 6.48 | 4.19 |
| C/C=C/c1cc(OC)c2c(c1)[C@@H](C)[C@@H](c1ccc(O)c(OC)c1)O2 | 1.42 | 3.01 | 12.2 | -5.83 | 0.586 |
| CCS(=O)(=O)N1CCC(CCOC)(NC(=O)C2CC2)CC1 | 0.472 | -0.14 | 2.63 | -0.408 | 0.612 |
| CC1(C(=O)NC2CCCCCC2)Cn2c(cc3occc32)C(=O)N1C1CCCCC1 (configuration not stated) | -2.79 | 1.56 | 5.04 | -10.5 | -4.59 |
| CCCn1c(=O)c2ccc(C(=O)NC(C)C)cc2n2c(SCC(=O)Nc3ccc(Cl)cc3)nnc12 | 2.49 | 0 | 8.4 | 0.164 | 4.52 |
